Data: PubChem BioAssay AID588855 (National Center for Advancing Translational Sciences (NCATS), 2011)
Among all 410,000 compounds or so, about 5,000 (1.2%) were called active. The inconclusive results got no clear call from the source; some entries with a clear call stand among them for comparison. Calls come from the whole dose curve; as a rule, active = well fitted inhibition curve with a large enough effect; inconclusive = small, poorly fitted or top-dose-only effect; inactive = no such curve, though single readings can be large or run the other way. Where the call is inconclusive, the potency comes from a doubtful curve fit.

Assay: qHTS for Inhibitors of TGF-b; note: nearly all actives have a fitted effect of over 65% in size
Conditions: HepG2 CAGA-GFP TGF-b/SMAD3 reporter, GFP fluorescence, 18 h, TGF-beta stimulated, 500 pg/mL final; series mostly up to 46.1 µM
How it was run: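 Read-out: total well GFP (ex488/em500-530) summed from mean per-cell fluorescence. Cells: HEPG2 CAGA-GFP, 1% FBS DMEM, 18 h at 37 degrees C with 500 pg/mL final TGF-beta. Unstimulated wells served as the full-inhibition control; stimulated DMSO wells = 0%.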
Potency is the fitted concentration of half-maximal effect; tags give direction and shape of the fitted curve.

Compound | Potency
Cc1ccc(O)c(C2=NNC(c3ccc(Cl)cc3)C2)c1 (configuration not stated) | inactive
Fc1ccc(-c2nc3ccc(Br)cn3c2Cc2cccc(Cl)c2)cc1 | inconclusive: 25.1 µM [inhibitor, single point]
COc1ccc(C(=O)NCc2ccc3c(c2)CCN3C(=O)c2ccccc2)cc1 | inactive
COc1ccc(-c2cnc(OC(C)(C)C)nc2OC(C)(C)C)cc1OC | inconclusive: 15.8 µM [inhibitor, single point]
NC(Cc1ccc(Cl)cc1)c1csc(NC(=O)Nc2ccccc2)n1 (configuration not stated) | active: 15.8 µM
O=C(c1ccccc1Br)N1CCn2c1nc1ccccc12 | inactive
COc1ccc(C2c3ccc4ccccc4c3Oc3ncn(CCCO)c(=N)c32)cc1 (configuration not stated) | inconclusive: 35.5 µM [inhibitor, single point]
CC(=O)N1CC(C)Sc2ccc(S(=O)(=O)NC(C)c3ccccc3)cc21 (configuration not stated) | inactive
O=C1NC(=Nc2ccc(O)cc2)S/C1=C\C=C\c1ccco1 | inconclusive: 2.82 µM [inhibitor, partial curve, poor fit]
N#Cc1c(Cl)cccc1N1CCSCC1 | inconclusive: 35.5 µM [inhibitor, single point]
CCOC(=O)CC(=O)CSc1nc2c(sc(=S)n2-c2ccc(OCC)cc2)c(=O)[nH]1 | inconclusive: 11.2 µM [inhibitor, single point]
CC1(C)NC(=O)N(CC(=O)OCC(=O)NC(=O)c2ccccc2)C1=O | inconclusive: 6.31 µM [inhibitor, single point]
O=C1CCC[C@@H]2C[C@@]3(C[C@@H]4CCN1[C@H]24)Nc1cc(Cl)c(Cl)cc1NC3=NCc1ccccc1 | active: 11.2 µM
COc1ccc(C(=O)NCC2CCCO2)cc1 (configuration not stated) | inactive
CC(C)(C)OC(=O)NCCCC[C@H](NC(=O)c1[nH]cnc1C(=O)Nc1ccccc1)C(=O)OC(C)(C)C | inconclusive: 22.4 µM [inhibitor, single point]
CC(=O)Oc1ccccc1C(=O)Nc1ccccc1 | inactive
Cc1ccccc1C(=O)NC1CCN(Cc2ccccc2)CC1 | inactive
CC1CN(N=Cc2ccc([N+](=O)[O-])o2)C(=N)O1 (configuration not stated) | inconclusive: 25.1 µM [inhibitor, single point]
Cc1cc(/C=N\NC(=O)COc2cccc3cccnc23)c(C)n1-c1ccc(Br)cc1 | inconclusive: 35.5 µM [inhibitor, single point]
COC(=O)Cc1ccc(N(Cc2ccccc2F)S(=O)(=O)c2ccc(Cl)cc2)cc1 | inconclusive: 20 µM [inhibitor, single point]
COc1cc(-c2cc[n+](C)cc2)ccc1O | inconclusive: 3.16 µM [inhibitor, single point]
O=C(Nc1ccc2c(c1)CCC2)c1cc(S(=O)(=O)Nc2ccc(F)cc2)c(Cl)cc1Cl | inconclusive: 0.562 µM [inhibitor, full curve, poor fit]
Cc1cccc(S(=O)(=O)c2cn(C)c3cc(N4CCN(c5ccc(F)cc5)CC4)c(F)cc3c2=O)c1 | inactive

Compound | Potency
O=[N+]([O-])c1ccc2nc(SCc3ccccc3Cl)sc2c1 | inconclusive: 35.5 µM [inhibitor, single point]
CS(=O)(=O)c1nc([N+](=O)[O-])nn1CCCc1ccccc1 | inconclusive: 35.5 µM [inhibitor, single point]
Cc1cccc(NNC(=S)Nc2ccccc2)c1 | inconclusive: 35.5 µM [inhibitor, single point]
Cc1ccc(N2CCN(S(=O)(=O)c3c(C)[nH]c(=O)[nH]c3=O)CC2C)cc1 (configuration not stated) | inactive
CC(=O)NC(c1ccc(C(C)C)cc1)c1ccc2cccnc2c1O (configuration not stated) | inconclusive: 0.562 µM [inhibitor, full curve, poor fit]
COCCn1c(SCc2ccc(OC)c(F)c2)nc2ccccc2c1=O | inconclusive: 11.2 µM [inhibitor, partial curve, poor fit]
Nc1ccc(-c2cc(NC=O)c3ncc(-c4cccc(C(F)(F)F)c4)n3c2)cn1 | inconclusive: 31.6 µM [inhibitor, single point]
Cc1ccc(S(=O)(=O)N2CCOCC2)cc1NC(=O)CNCc1ccccc1Cl | inactive
CCOc1ccccc1N1CCN(CC(=O)Nc2ncc(C)s2)CC1 | inconclusive: 0.891 µM [inhibitor, full curve]
C[C@@H]1CCCCO[C@H](CN(C)C)[C@H](C)CN([C@@H](C)CO)C(=O)c2cc(NC(=O)Nc3ccc(C(F)(F)F)cc3)ccc2O1 | inactive
CN(C)CCNC(=O)c1cccc(-c2cc(NC=O)c3ncc(-c4cccc(C(F)(F)F)c4)n3c2)c1 | inconclusive: 35.5 µM [inhibitor, single point]
CCOC(=O)C1=C[C@@H](C(C)C)N(S(=O)(=O)c2ccc(C)cc2)[C@H]1c1ccc(C(F)(F)F)cc1 | inconclusive: 11.2 µM [inhibitor, partial curve, poor fit]
COC(=O)c1c(C(=O)OC)c(-c2ccccc2)n2c1CS(=O)(=O)C2 | inconclusive: 0.562 µM [inhibitor, full curve, poor fit]
COc1cccc(CN2CCC2(C)C(=O)Nc2cccc(Oc3ccccc3)c2)c1OC (configuration not stated) | inconclusive: 20 µM [inhibitor, partial curve, poor fit]
CCN(CC)S(=O)(=O)c1ccc2c(c1)nc(CCC(=O)Nc1ccccc1Cc1ccccc1)n2CC | inconclusive: 0.112 µM [inhibitor, full curve, poor fit]
CCOC(=O)C1(C)C=C(Nc2ccc(OC)cc2)C(=O)N1c1ccc(OC)cc1 (configuration not stated) | inconclusive: 35.5 µM [inhibitor, single point]
COc1cccc(OC)c1C(=O)Nc1nnc(-c2ccc(F)cc2)s1 | inconclusive: 14.1 µM [inhibitor, partial curve, poor fit]
CCCCN(Cc1nc2ccccc2c(=O)[nH]1)C(=O)c1nn(C)c(=O)c2ccccc12 | inconclusive: 35.5 µM [inhibitor, single point]
CC(C)OC(=O)c1cc2c(ccn2C)n1CC(=O)N(Cc1ccccc1)c1ccc(F)cc1 | inconclusive: 35.5 µM [inhibitor, single point]
COc1ccc(-c2cc(C(=O)N3CCCC3)c3ccccc3n2)cc1OC | inactive
CNC(=O)c1sc(-c2ccccc2)nc1C | inconclusive: 0.708 µM [inhibitor, full curve, poor fit]
C=CCOc1ccc(C(=O)n2cc(C(=O)OC)c3ccccc32)cc1 | inconclusive: 6.31 µM [inhibitor, single point]
COc1cccc(C=CC(=O)C=CC=Cc2ccccc2)c1 | inconclusive: 15.8 µM [inhibitor, single point]

Compound | Potency
CC1(S(=O)(=O)O)CC(=O)c2ccccc2C1=O (configuration not stated) | inconclusive: 35.5 µM [inhibitor, single point]
Cc1ccc(Cc2cn3cc(-c4ccccc4)nc3s2)cc1 | inactive
Cc1ccc(C(=O)C(c2ccccc2)N2Cc3ccccc3C2=N)cc1 (configuration not stated) | inconclusive: 22.4 µM [inhibitor, single point]
Cn1nnnc1Sc1ncnc2scc(-c3cccc(S(C)(=O)=O)c3)c12 | inconclusive: 7.94 µM [inhibitor, partial curve, poor fit]
CCc1nc2ccccc2n1CC(=O)NC1CCS(=O)(=O)C1 (configuration not stated) | inactive
CCn1c(COc2ccccc2C)nnc1SCC(=O)Nc1cc(C)on1 | inconclusive: 5.62 µM [inhibitor, single point]
Cc1ccc(NC(C(=O)c2ccccc2)c2ccccc2)cc1 (configuration not stated) | inconclusive: 14.1 µM [inhibitor, single point]
CCCN1CCc2c(sc(NC(=O)C3CCN(S(=O)(=O)c4cccs4)CC3)c2C(N)=O)C1 | inactive
COc1ccc(C2CC(c3c(-c4ccccc4)c4cc(Cl)ccc4[nH]c3=O)=NN2S(C)(=O)=O)cc1 (configuration not stated) | inconclusive: 12.6 µM [inhibitor, single point]
CCOC(=O)C1CCN(c2c(Nc3ccc(C)c(C)c3)c(=O)c2=O)CC1 | inactive
Cn1nc(-c2ccc(Cl)cc2)c2cc(C(=O)NCCCN3CCOCC3)sc21 | inactive
COc1ccc(OCC(=O)Nc2c3c(nn2-c2ccc(OC)cc2)CS(=O)(=O)C3)cc1 | inconclusive: 3.55 µM [inhibitor, single point]
Cn1cc(CNCc2cn(C)nc2-c2ccc(C3CCCCC3)cc2)cn1 | inactive
N/C(=N\OC(=O)c1ccc2c(c1)OCO2)c1cccnc1 | inactive
Cc1cc(C)c(OCCCCNCc2ccccc2)c(Cl)c1 | inconclusive: 35.5 µM [inhibitor, single point]
CC(C)C(=O)Nc1nc(-c2ccc([N+](=O)[O-])cc2)cs1 | inconclusive: 15.8 µM [inhibitor, single point]
CCOc1cc(CNc2ccc(OC)cc2)cc(Br)c1OCC(=O)NC(C)(C)C | inconclusive: 35.5 µM [inhibitor, single point]
O=C(C1CCN(S(=O)(=O)c2cccc3nsnc23)CC1)N1CCCc2ccccc21 | inactive
Cc1ccc2cc(CN(Cc3ccco3)C(=O)NCc3ccccc3)c(=O)[nH]c2c1C | inconclusive: 11.2 µM [inhibitor, single point]
CC(=O)NNC(=O)c1sc(=S)n2c1[nH]c(=O)c1sccc12 | inconclusive: 3.16 µM [inhibitor, single point]
OC(c1ccccc1)c1ncc(-c2ccc(Oc3ccccc3)cc2)[nH]1 (configuration not stated) | inconclusive: 14.1 µM [inhibitor, single point]
